Results on 97 variants are retold here after a collection of fitness landscapes (doi:10.1016/j.celrep.2020.107928).

To fix the notation:
B1: Caulobacter ParB omega fusion; a variant is named by its letters at X, in order, B8GW30 (parent)
chain: MESVVVGEPGMSEGRRGLGRGLSALLGEVDAAPAQAPGEQLGGSREAPIEILQRNPDQPRRTFREEDLEDLSNSIREKGVLQPILVRPSPDTAGEYQIVAGERAWRAAQRAGLKTVPIMVRELDDLAVLEIGIIENVQRADLNVLEEALSYKVLMEKFERTQENIAQTIGKSXSHVANXMRLLXLPDEVQSYLVSGELTAXHARAIAAAADPVALAKQIIEGGLSVRETEALARKAPNLSAGKSKGGRPPRVKDTDTQALESDLSSVLGLDVSIDHRGSTGTLTITYATLEQLDDLCNRLTRGI

In all, about 81,000 sequences were measured (“one-hybrid fitness for binding NBS DNA”: median about -0.1, highest 2% from about 0.36 on). The list shows a part of the results.

The variants in the test derive from B1. The experiment in a line: one-hybrid fitness for binding NBS DNA (the Noc-binding site; scaled: cognate 1, non-cognate 0); higher = stronger binding. As to conditions: with NBS DNA site. A digest of the protocol:
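Fitness is the rescaled log change in variant-to-wild-type read ratio, measured by Illumina sequencing of plasmids before and after bacterial one-hybrid selection. The scale puts cognate at 1 and non-cognate at 0. Selection of Caulobacter ParB libraries, four specificity codons randomised, took place in E. coli USO with a HIS3 reporter, site 19 bp from the promoter, over 48 hours at 37°C on M9-minus-histidine with 0.1 mM IPTG and 5 mM 3-AT.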
With PNCF, the “one-hybrid fitness for binding NBS DNA” value was at most 0.2. The value for CTIM was at most 0.2; that for PVTS was at most 0.2. With QNYE the figure was at most 0.2; with IPFL, at most 0.2. As to WFSG, the “one-hybrid fitness for binding NBS DNA” value was at most 0.2.

Consider QKRG, for which the “one-hybrid fitness for binding NBS DNA” value was found to be 0.335.

Take KQTC: the “one-hybrid fitness for binding NBS DNA” value was at most 0.2. The value for IMTL was at most 0.2; that for ADRE was at most 0.2. On to QMTC, for which the “one-hybrid fitness for binding NBS DNA” value was at most 0.2. Turning to RSFR, the “one-hybrid fitness for binding NBS DNA” value stood at 0.28. With DPKT the figure was at most 0.2; with DTWP, at most 0.2; with VPRT, at most 0.2.

For the variant QQTF, the “one-hybrid fitness for binding NBS DNA” value is at most 0.2.

As to SCET, the “one-hybrid fitness for binding NBS DNA” value was at most 0.2. Regarding IVLQ, the “one-hybrid fitness for binding NBS DNA” value was at most 0.2. The value for TTCN was at most 0.2. With NFTT the figure was at most 0.2. With IRLH the figure was at most 0.2.

Turning to HSNW, the “one-hybrid fitness for binding NBS DNA” value is at most 0.2. With LYFS the figure was at most 0.2; with LMES, at most 0.2. The value for AQHE was at most 0.2. The value for TCAT was at most 0.2. On to LTAL, for which the “one-hybrid fitness for binding NBS DNA” value is at most 0.2.

Consider YING, for which the “one-hybrid fitness for binding NBS DNA” value is at most 0.2. KCTW: the “one-hybrid fitness for binding NBS DNA” value was at most 0.2. The value for SSKA was at most 0.2; that for RRVV was 0.229; that for PDGW was at most 0.2. The value for SKMG was at most 0.2; that for TDRM was at most 0.2. Take FGAR: the “one-hybrid fitness for binding NBS DNA” value came out at 0.385. With HRSG the figure was at most 0.2; with CVTM, at most 0.2; with EHRV, at most 0.2.

Consider ISCP, for which the “one-hybrid fitness for binding NBS DNA” value was at most 0.2. The value for PNAP was at most 0.2; that for HADI was at most 0.2. The value for PERY was at most 0.2; that for KQTV was at most 0.2. Consider EDMS, for which the “one-hybrid fitness for binding NBS DNA” value was at most 0.2. The value for FGTS was at most 0.2. The value for KWCT was at most 0.2; that for RTLK was at most 0.2; that for RTRD was at most 0.2. With LCWC the figure was at most 0.2; with QHML, at most 0.2. As for IMLN, the “one-hybrid fitness for binding NBS DNA” value is at most 0.2.

As for LKCT, the “one-hybrid fitness for binding NBS DNA” value is at most 0.2. Take MSSA: the “one-hybrid fitness for binding NBS DNA” value was at most 0.2. Take QPSA: the “one-hybrid fitness for binding NBS DNA” value was at most 0.2. With DQRG the figure was at most 0.2. For the variant VSEI, the “one-hybrid fitness for binding NBS DNA” value is at most 0.2. With NFRA the figure was at most 0.2. With QVTA the figure was at most 0.2; with QANH, at most 0.2. Consider QYSC, for which the “one-hybrid fitness for binding NBS DNA” value was at most 0.2.

For HNFT, the “one-hybrid fitness for binding NBS DNA” value was at most 0.2. With HDGV the figure was at most 0.2; with HGYA, at most 0.2; with HHGR, at most 0.2. The value for RNTY was at most 0.2; that for SHAY was at most 0.2. With INYS the figure was at most 0.2; with QIGA, at most 0.2; with CSSW, at most 0.2. On to PKTI, for which the “one-hybrid fitness for binding NBS DNA” value is at most 0.2. The value for LKFR was at most 0.2; that for NPDL was at most 0.2; that for QDAD was at most 0.2. With MTAK, the “one-hybrid fitness for binding NBS DNA” value was at most 0.2.

Consider REGE, for which the “one-hybrid fitness for binding NBS DNA” value was at most 0.2. In the case of ASEL, the “one-hybrid fitness for binding NBS DNA” value was at most 0.2. For DMRS, the “one-hybrid fitness for binding NBS DNA” value was at most 0.2. With LYVH the figure was at most 0.2; with GVAH, at most 0.2. As to EEGS, the “one-hybrid fitness for binding NBS DNA” value is at most 0.2. Take TDTS: the “one-hybrid fitness for binding NBS DNA” value is at most 0.2. With SPVG the figure was at most 0.2; with LRCR, at most 0.2; with GAHG, at most 0.2. With VGRN the figure was at most 0.2; with EAGG, at most 0.2. For LQES, the “one-hybrid fitness for binding NBS DNA” value is at most 0.2.

Regarding STKH, the “one-hybrid fitness for binding NBS DNA” value is at most 0.2. The value for CWTS was at most 0.2; that for NMTR was at most 0.2.

For the variant NVQM, the “one-hybrid fitness for binding NBS DNA” value is at most 0.2. With ELNM the figure was at most 0.2. The value for RPHS was at most 0.2. The value for RAKG was at most 0.2; that for QNKV was at most 0.2; that for GSHF was at most 0.2.

In the case of NLML, the “one-hybrid fitness for binding NBS DNA” value was at most 0.2.
